B1: ActRIIB(F82I-N83R)-G1Fc (Fc fusion)
chain: GRGEAETRECIYYNANWELERTNQSGLERCEGEQDKRLHCYASWRNSSGTIELVKKGCWLDDIRCYDRQECVATEENPQVYFCCCEGNFCNERFTHLPEAGGPEVTYEPPPTAPTG[human IgG1 Fc and a few adjoining residues left out here]
notes: Homodimeric Fc fusion
B2: ActRIIB(F82K-N83R)-G1Fc (Fc fusion)
chain: GRGEAETRECIYYNANWELERTNQSGLERCEGEQDKRLHCYASWRNSSGTIELVKKGCWLDDKRCYDRQECVATEENPQVYFCCCEGNFCNERFTHLPEAGGPEVTYEPPPTAPTG[human IgG1 Fc and a few adjoining residues left out here]
notes: Homodimeric Fc fusion; substitutions already in the entry
B3: ActRIIB(F82T-N83R)-G1Fc (Fc fusion)
chain: GRGEAETRECIYYNANWELERTNQSGLERCEGEQDKRLHCYASWRNSSGTIELVKKGCWLDDTRCYDRQECVATEENPQVYFCCCEGNFCNERFTHLPEAGGPEVTYEPPPTAPTG[human IgG1 Fc and a few adjoining residues left out here]
notes: as for B2
B4: ActRIIB(F82I)-G1Fc (Fc fusion)
chain: GRGEAETRECIYYNANWELERTNQSGLERCEGEQDKRLHCYASWRNSSGTIELVKKGCWLDDINCYDRQECVATEENPQVYFCCCEGNFCNERFTHLPEAGGPEVTYEPPPTAPTG[human IgG1 Fc and a few adjoining residues left out here]
notes: Homodimeric Fc fusion; substitution already in the entry; also called ActRIIB(F82I)-Fc
B5: ActRIIB(F82K)-G1Fc (Fc fusion)
chain: GRGEAETRECIYYNANWELERTNQSGLERCEGEQDKRLHCYASWRNSSGTIELVKKGCWLDDKNCYDRQECVATEENPQVYFCCCEGNFCNERFTHLPEAGGPEVTYEPPPTAPTG[human IgG1 Fc and a few adjoining residues left out here]
notes: Homodimeric Fc fusion; substitution already in the entry; also called ActRIIB(F82K)-Fc
B6: ActRIIB(K55A)-G1Fc (Fc fusion)
chain: GRGEAETRECIYYNANWELERTNQSGLERCEGEQDARLHCYASWRNSSGTIELVKKGCWLDDFNCYDRQECVATEENPQVYFCCCEGNFCNERFTHLPEAGGPEVTYEPPPTAPTG[human IgG1 Fc and a few adjoining residues left out here]
notes: Homodimeric Fc fusion; substitution already in the entry; also called ActRIIB(K55A)-Fc
B7: ActRIIB(K55E)-G1Fc (Fc fusion)
chain: GRGEAETRECIYYNANWELERTNQSGLERCEGEQDERLHCYASWRNSSGTIELVKKGCWLDDFNCYDRQECVATEENPQVYFCCCEGNFCNERFTHLPEAGGPEVTYEPPPTAPTG[human IgG1 Fc and a few adjoining residues left out here]
notes: Homodimeric Fc fusion; substitution already in the entry; also called ActRIIB(K55E)-Fc
B8: L79K (homodimeric ActRIIB-Fc construct) (Fc fusion)
chain: GRGEAETRECIYYNANWELERTNQSGLERCEGEQDKRLHCYASWRNSSGTIELVKKGCWKDDFNCYDRQECVATEENPQVYFCCCEGNFCNERFTHLPEAGGPEVTYEPPPTAPTG[human IgG1 Fc and a few adjoining residues left out here]
B9: ActRIIB E50L (Fc fusion)
ActRIIB extracellular domain-G1Fc fusion chain: GRGEAETRECIYYNANWELERTNQSGLERCLGEQDKRLHCYASWRNSSGTIELVKKGCWLDDFNCYDRQECVATEENPQVYFCCCEGNFCNERFTHLPEAGGPEVTYEPPPTAPTG[human IgG1 Fc and a few adjoining residues left out here]
notes: also called ActRIIB(E50L)-G1Fc
B10: ActRIIB L38N/L79R (Fc fusion)
ActRIIB extracellular domain-G1Fc fusion chain: GRGEAETRECIYYNANWENERTNQSGLERCEGEQDKRLHCYASWRNSSGTIELVKKGCWRDDFNCYDRQECVATEENPQVYFCCCEGNFCNERFTHLPEAGGPEVTYEPPPTAPTG[human IgG1 Fc and a few adjoining residues left out here]
notes: also called ActRIIB(L38N-L79R)-G1Fc
B11: ActRIIB V99G (Fc fusion)
ActRIIB extracellular domain-G1Fc fusion chain: GRGEAETRECIYYNANWELERTNQSGLERCEGEQDKRLHCYASWRNSSGTIELVKKGCWLDDFNCYDRQECVATEENPQGYFCCCEGNFCNERFTHLPEAGGPEVTYEPPPTAPTG[human IgG1 Fc and a few adjoining residues left out here]
notes: also called ActRIIB(V99G)-G1Fc

What follows are binders tested against T1, activin A (UniProt P08476 311-426) (assay: cell-based or functional assay).
T1 sequence (looked up): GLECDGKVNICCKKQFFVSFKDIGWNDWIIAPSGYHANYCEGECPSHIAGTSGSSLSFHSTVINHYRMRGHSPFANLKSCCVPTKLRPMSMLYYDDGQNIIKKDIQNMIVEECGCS

Binder | IC50 (nM), A204 CAGA12 luciferase reporter assay
B1 | 1.67 nM
B2 | 1.32 nM
B3 | 1.52 nM

What follows are binders tested against T2, activin B (UniProt P09529 293-407) (assay: cell-based or functional assay).
T2 sequence (looked up): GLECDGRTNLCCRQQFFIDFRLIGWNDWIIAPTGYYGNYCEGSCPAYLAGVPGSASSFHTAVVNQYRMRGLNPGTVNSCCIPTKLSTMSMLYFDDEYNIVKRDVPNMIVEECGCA

Binder | IC50 (nM), A204 CAGA12 luciferase reporter assay
B1 | 0.08 nM
B2 | 0.09 nM
B3 | 0.11 nM

Each binder was assayed against T3, GDF11 (UniProt O95390 299-407) (assay: cell-based or functional assay).
T3 sequence (looked up): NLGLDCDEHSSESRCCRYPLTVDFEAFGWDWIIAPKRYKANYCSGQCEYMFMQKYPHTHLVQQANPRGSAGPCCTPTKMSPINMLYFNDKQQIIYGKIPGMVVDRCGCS

Binder | IC50 (nM), A204 CAGA12 luciferase reporter assay
B1 | 9.95 nM
B3 | 17.9 nM

What follows are binders tested against T4, BMP10 (UniProt O95393 317-424) (assay: cell-based or functional assay).
T4 sequence (looked up): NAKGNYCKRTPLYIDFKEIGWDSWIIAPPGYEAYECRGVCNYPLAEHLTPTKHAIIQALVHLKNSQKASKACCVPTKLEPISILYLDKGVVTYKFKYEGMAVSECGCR

Binder | IC50 (nM), A204 CAGA12 luciferase reporter assay
B1 | 13.2 nM
B2 | 0.53 nM
B3 | 12.6 nM

Target: T1, activin A
Experiment: cell-based or functional assay
Remark: another data set of the same source

Binder | IC50 (ng/ml), A204 CAGA12 luciferase reporter assay
B4 | 11 ng/mL
B5 | 10 ng/mL
B6 | 15 ng/mL
B7 | 19 ng/mL

What follows are binders tested against T5, BMP9 (UniProt Q9UK05 320-429) (assay: cell-based or functional assay).
T5 sequence (looked up): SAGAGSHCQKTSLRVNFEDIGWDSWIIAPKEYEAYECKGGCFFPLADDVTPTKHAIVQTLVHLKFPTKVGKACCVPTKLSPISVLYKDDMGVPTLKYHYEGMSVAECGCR

Binder | IC50 (ng/ml), A204 CAGA12 luciferase reporter assay
B4 | 277 ng/mL
B5 | ~5000 ng/mL
B6 | 122 ng/mL
B7 | 290 ng/mL

Target: T3, GDF11
Experiment: cell-based or functional assay
Remark: another data set of the same source

Binder | IC50 (ng/ml), A204 CAGA12 luciferase reporter assay
B4 | 9 ng/mL
B5 | 15 ng/mL
B6 | 11 ng/mL
B7 | 14 ng/mL
B8 | 477 ng/mL

What follows are binders tested against T1, activin A (assay: SPR (Biacore), 37 C; Fc fusion captured via anti-Fc, ligand injected).
Description: (§1) To determine ligand binding profiles of variant ActRIIB-Fc homodimers, a Biacore™-based binding assay was used to compare ligand binding kinetics of certain variant ActRIIB-Fc polypeptides. ActRIIB-Fc polypeptides to be tested were independently captured onto the system using an anti-Fc antibody. Ligands were then injected and allowed to flow over the captured receptor protein. ActRIIB-G1Fc was used as the control polypeptide.

Binder | Kd | koff | kon | binding result
B9 | 45.6 pM | 0.000858 s⁻¹ | 1.88e+07 M⁻¹ s⁻¹ | 
B10 | 339 pM | 0.00444 s⁻¹ | 1.31e+07 M⁻¹ s⁻¹ | 
B11 |  |  |  | no binding
B1 | 327 pM | 0.00583 s⁻¹ | 1.79e+07 M⁻¹ s⁻¹ | 
B2 | 513 pM | 0.00812 s⁻¹ | 1.58e+07 M⁻¹ s⁻¹ | 
B3 | 200 pM | 0.00482 s⁻¹ | 2.41e+07 M⁻¹ s⁻¹ | 

The binders below were run against T2, activin B in the same assay as above.
Description: as §1

Binder | Kd | koff | kon
B9 | 159 pM | 0.000262 s⁻¹ | 1.64e+06 M⁻¹ s⁻¹
B10 | 36.9 pM | 0.000278 s⁻¹ | 7.53e+06 M⁻¹ s⁻¹
B11 | 847 pM | 0.00218 s⁻¹ | 2.58e+06 M⁻¹ s⁻¹
B1 | 7.3 pM | 0.000161 s⁻¹ | 2.22e+07 M⁻¹ s⁻¹
B2 | 8.5 pM | 0.000203 s⁻¹ | 2.39e+07 M⁻¹ s⁻¹
B3 | 10.9 pM | 0.000246 s⁻¹ | 2.25e+07 M⁻¹ s⁻¹
